Measured values taken from PubChem BioAssay AID686978 (National Center for Advancing Translational Sciences (NCATS), 2013).
The campaign covered roughly 420,000 compounds. About 64,000 (15%) were called active. Inconclusive results, whose numbers are uncertain, are shown with a selection of clear calls. The call rests on the fitted dose curve; in most records, active means well fitted inhibition curve with a large enough effect; inconclusive means small, poorly fitted or top-dose-only effect; inactive means flat fitted curve, though single readings scatter. No potency is given beside an inconclusive call; the fits are too rough.

assay: qHTS for Inhibitors of human tyrosyl-DNA phosphodiesterase 1 (TDP1): qHTS in cells in absence of CPT; conditions: DT40 Tdp1-/- hTDP1 cells, no CPT, ATP luminescence, 48 h; series mostly up to 46.2 µM; further: nearly all actives have a fitted effect of over 55% in size
Summary of the method: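 A cellular qHTS used chicken DT40 cells lacking endogenous Tdp1 but carrying stably transfected human TDP1. Compounds were applied without camptothecin, and cell growth kinetics were judged by ATP-dependent luminescence after ≥48 hr.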
Potency means the concentration at half of the fitted maximal effect; tags describe the fitted curve by direction and shape.

Structure (SMILES) | Potency
CCCNNC(=O)C(O)(c1cccc(C)c1)c1cccc(C)c1 | inactive
COC(=O)CSc1ccc2nnc(-c3ccc(OC)c(OC)c3)n2n1 | inconclusive [inhibitor, single point]
CC(=O)c1c(C)n(-c2ccc(N(C)C)cc2)c2ccc(OCC(N)=O)cc12 | active: 23.1 µM
CCNc1ncc2nc(C)c(=O)n(CCOC)c2n1 | inactive
CCOc1cc(CNC(=O)Cn2c(-c3cccs3)cc3cc(F)ccc32)ccc1OC | inconclusive [inhibitor, single point]
CCCNC(=O)c1ccc2snnc2c1 | inactive
Cc1ccc2c(Cl)c(C)c(N3CCCCC3)nc2n1 | inconclusive [inhibitor, single point]
Nc1c(-c2ccc(Cl)cc2)cnc2ncnn12 | inconclusive [inhibitor, partial curve]
CN(CCc1ccccc1)C(=O)c1cccc(NC(=O)Cc2cccc(NC(=O)C3CCN(C(=O)C4CC4)CC3)c2)c1 | inactive
CCOC(=O)c1sc(=NC(=O)c2c(F)cccc2F)n(C)c1C | inactive
Cc1c(C)c2ccc(O[C@@H]3O[C@H](CO)[C@@H](O)[C@H](O)[C@H]3O)c(C)c2oc1=O | inactive
COC(=O)CCC(=O)N1CCC(CCC(=O)NCc2ccc(F)cc2)CC1 | inactive
CCOC(=O)C1=C[C@@H](C(C)(C)C)N(S(=O)(=O)c2ccc(C)cc2)[C@H]1c1ccccc1 | inconclusive [inhibitor, single point]
COc1ccc(NC(=O)N(C)C[C@H]2Oc3c(NC(=O)NC(C)C)cccc3C(=O)N([C@H](C)CO)C[C@@H]2C)cc1 | inactive
O=C(OC(C(=O)NCc1ccccc1)c1ccccc1F)c1ccco1 (stereo not drawn) | inactive
COc1ccc(/C=C/c2nnc(NC(=O)C(C)C)s2)cc1 | inactive
COc1cccc(C(=O)NC(=S)Nc2ccccc2N2CCCC2)c1 | inconclusive [inhibitor, single point]
COc1cccc2cc(C(=O)NNC(=O)c3ccc(Br)cc3)c(=O)oc12 | inconclusive [inhibitor, single point]
COC(=O)C1=C(c2ccccc2)c2ccccc2S(=O)(=O)N1CC(=O)Nc1ccccc1Cl | inconclusive [inhibitor, single point]
CC(C)NC(=O)C1(C)CCN1Cc1ccc(-c2ccccc2)cc1 (stereo not drawn) | active: 8.2 µM
CC(NC(=O)C1CCCN(S(=O)(=O)c2cccc3nonc23)C1)c1ccccc1 (stereo not drawn) | inactive
Cc1cc(C)n(-c2nc3ccccc3nc2NCCc2ccccc2)n1 | inconclusive [inhibitor, single point]
Nc1ccccc1S(=O)(=O)NCCCCc1ccccc1 | inconclusive [inhibitor, single point]
CCOCCCn1c(=N)c(C(=O)NCC2CCCO2)cc2c(=O)n3cccc(C)c3nc21 (stereo not drawn) | inconclusive [inhibitor, single point]

Structure (SMILES) | Potency
Cc1ccc(C)c(N2CCN(Cc3csc(C)c3)CC2)c1 | active: 23.1 µM
CC(=O)Nc1ccc(NC(=O)C2CCCN(C(=O)c3ccc(Cl)cc3)C2)cc1 (stereo not drawn) | inactive
O=C(Nc1cccc(F)c1)c1ccc(-c2ccccc2)s1 | inconclusive [inhibitor, partial curve, poor fit]
COc1ccc(C(=O)N/N=C/c2ccc(OC)c(CSc3ccccn3)c2)cc1 | inactive
CCN(C)C(=O)Oc1cccc([C@H](C)N(C)C)c1 | inactive
O=C(c1cccs1)N1CCCc2cc(NS(=O)(=O)c3ccc(F)cc3F)ccc21 | active: 9.2 µM
COCCNc1c2c(nc3c(-c4ccccc4)c(C)nn13)CCC2 | inconclusive [inhibitor, single point]
CCc1nn2c(=O)cc(COC(=O)c3cc(Cl)c(OC)c(OC)c3)nc2s1 | inconclusive [inhibitor, single point]
Cc1[nH]n2c(=O)cc(C(C)(C)C)nc2c1-c1ccccc1 | active: 5.17 µM
COc1ccc([C@@H]2CC=C(C(=O)O)[C@H](c3ccc(Cl)cc3)N2S(=O)(=O)c2ccccc2C)cc1 | inactive
COC(=O)C1CCN(S(=O)(=O)c2cc3c4c(c2)CC(=O)N4CCC3)CC1 | inactive
COc1ccc(NC(=O)CSc2nnc(CNC(=O)c3ccco3)o2)cc1 | inactive
O=C(OC1CC2CC1[C@H]1CCCCN1C2=O)N1CCN(C(=O)c2ccccc2)CC1 (stereo partly drawn) | inconclusive [inhibitor, single point]
CCOc1ccccc1N1CCN(C(=O)NCc2ccc(F)cc2)CC1 | inactive
O=C(CCC1CCCN(C2C3CC4CC(C3)CC2C4)C1)NCc1ccc(F)c(F)c1 (stereo not drawn) | inactive
Cc1cccc(NS(=O)(=O)c2ccc3c(c2)CCN3C(=O)C2CCC2)c1 | active: 18.4 µM
COC(=O)CNC(=O)CSc1nc2sccc2c(=O)n1-c1ccccc1 | inactive
CCOC(=O)c1ccc(S(=O)(=O)N2CCN(CC3CC=CCC3)CC2)cc1 (stereo not drawn) | inconclusive [inhibitor, single point]
COc1ccc(OC)c(S(=O)(=O)NCc2csc(-c3ccccc3)n2)c1 | inconclusive [inhibitor, full curve, poor fit]
O=C1CCCC2=C1C(c1ccc(OS(=O)(=O)c3ccc(Cl)cc3)cc1)C1=C(CCCC1=O)O2 | inconclusive [inhibitor, single point]
Cc1ccccc1Cn1c2ccccc2c2cnn(CC(=O)NCc3ccco3)c(=O)c21 | inconclusive [inhibitor, single point]
CC(=O)NS(=O)(=O)c1cccnc1Nc1ccc(Cl)c(Cl)c1 | inconclusive [inhibitor, single point]
O=C(c1ccc(C(F)(F)F)cc1)N1CCC(=O)N(C(COCc2ccc(C(F)(F)F)cc2)Cc2ccccc2)CC1 (stereo not drawn) | active: 18.4 µM
CCN(Cc1ccccc1)c1ccc(/C=C/c2nccc3ccccc23)cc1 | inconclusive [inhibitor, single point]
